Out of some 110,000 compounds screened, about 230 (0.21%) showed an effect of 50% or more. The list shows a part of the results.
Biological target: DPAP1 (Plasmodium falciparum, UniProt Q8IIJ9)
Test: primary screen, percent inhibition; read by cleavage of a fluorogenic dipeptide substrate; higher = more effect of the substance
Design: species or system P. falciparum D10 trophozoite lysates; single well
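Further: 30 min substrate incubation versus DMSO and 10 µM JCP410 controls.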

Chain of DPAP1 (Q8IIJ9 whole entry, looked up): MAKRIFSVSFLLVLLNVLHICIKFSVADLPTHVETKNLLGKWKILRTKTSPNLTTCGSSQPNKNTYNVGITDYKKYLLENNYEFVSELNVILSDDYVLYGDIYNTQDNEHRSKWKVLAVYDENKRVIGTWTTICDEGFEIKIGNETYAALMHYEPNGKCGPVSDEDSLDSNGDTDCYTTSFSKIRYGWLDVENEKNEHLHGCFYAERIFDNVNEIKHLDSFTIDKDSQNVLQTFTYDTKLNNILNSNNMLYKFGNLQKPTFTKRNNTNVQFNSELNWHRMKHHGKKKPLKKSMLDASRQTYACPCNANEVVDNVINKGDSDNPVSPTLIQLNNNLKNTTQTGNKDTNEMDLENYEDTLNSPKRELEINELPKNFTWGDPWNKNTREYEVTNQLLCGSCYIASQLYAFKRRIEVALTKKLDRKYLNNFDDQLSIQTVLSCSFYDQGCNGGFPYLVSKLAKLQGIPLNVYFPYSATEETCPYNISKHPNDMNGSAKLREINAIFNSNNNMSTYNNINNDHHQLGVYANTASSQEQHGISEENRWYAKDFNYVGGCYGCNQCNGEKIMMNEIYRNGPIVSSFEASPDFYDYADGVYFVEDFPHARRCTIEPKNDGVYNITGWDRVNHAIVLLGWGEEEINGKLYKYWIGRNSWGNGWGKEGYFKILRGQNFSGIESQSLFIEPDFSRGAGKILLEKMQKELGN

SMILES | % Inhibition @ 10 uM
Clc1ccc(OCCCCN2CCOCC2)cc1 | -9.96%
Cc1ccc(S(=O)(=O)N2CC(C)OC(C)C2)cc1 (stereo not drawn) | 2.08%
Cc1ccc(N2C(=O)CC(N3CCCC4CCCCC43)C2=O)cc1 (stereo not drawn) | -0.0938%
COC(=O)c1ccc2c(c1)C(=O)/C(=C/c1cn(-c3ccccc3)nc1-c1ccco1)O2 | -1.37%
COCCNC(=O)CCc1c(C)nc2nc(-c3ccc(Cl)cc3Cl)nn2c1C | -4.24%
N#Cc1ccccc1OCC(=O)Nc1ccc(OC(F)(F)F)cc1 | 3.57%
COc1ccc(N2C(=O)c3ccccc3C2=O)cc1NC(=O)c1ccccc1 | -0.891%
COCCNc1ncnc2oc(C)c(C(=O)O)c12 | -9.6%
COC(=O)c1ccc(-c2ccco2)n1CC(=O)NC(C)c1ccccc1 (stereo not drawn) | 5.82%
CCOC(=O)c1cc(C(=O)NC(C)c2ccccc2)c(C)nc1O (stereo not drawn) | -0.597%
c1ccc2c(CNC3CCCC3)c[nH]c2c1 | 2.65%
CC1CCN(c2ncnc3c2sc2nc(C(C)C)c4c(c23)CC(C)(C)OC4)CC1 | 2.1%
O=c1c2c3c(sc2[nH]c(=S)n1-c1ccccc1)CC1(CCCCC1)CC3 | 0.774%
Cc1c(Cl)cccc1-n1nc(C)c2c(C(=O)NCc3ccco3)cc(C3CC3)nc21 | -3.56%
O=C(Nc1ccc(O)cc1)/C(=C/c1ccco1)NC(=O)c1ccccc1 | -0.661%
COc1ccc(/C=C2/N=C(c3cccc4ccccc34)OC2=O)c(OC)c1 | -18.5%
Cc1cc(C(=O)N2N=C(C(F)F)CC2(O)C(F)F)c2ccccc2n1 (stereo not drawn) | 3.52%
COc1ccc2ccccc2c1/C=C1\N=C(c2cccc(C)c2)OC1=O | 5.94%
Cc1cc(/C=C2\SC(=O)N(Cc3ccc(F)cc3)C2=O)c(C)n1-c1cccnc1 | 0.955%
CC(C)Cc1c(C#N)c(S)nc2c1CCCC2 | 90.5%
O=C(Nc1ccccc1C(=O)N1CCN(CCO)CC1)c1ccc(Cl)cc1Cl | 1.03%
c1ccc(COc2ccc(CN3CCSCC3)cc2)cc1 | 0.217%
COc1ccc(CNc2oc(COc3ccc(Cl)cc3)nc2C#N)cc1 | 1.43%
Cc1nc2sc3c(ncn4c5ccccc5nc34)c2c(C)c1Cl | 3.81%
O=C(CCN1C(=O)c2ccncc2C1=O)NCc1ccc(Cl)cc1 | -4.67%
O=c1cc(-c2ccccc2)n(-c2ccccc2)[nH]1 | 0.716%

SMILES | % Inhibition @ 10 uM
Cc1cc(C)c(OCC(O)CN2CCC(C)CC2)c(C)c1 (stereo not drawn) | -10.8%
Oc1ccc(O)c2c1C1c3ccccc3C2c2ccccc21 | -0.0369%
CC(C)Cn1cc(NC(=O)Nc2cccnc2)c2ccccc2c1=O | -3.08%
CCOc1ccccc1C(=O)Nc1cc(OC)ccc1OC | -5.82%
O=S(=O)(NCCSCc1ccccc1)c1ccc2c(c1)OCCO2 | -3.9%
O=C(CCC(=O)c1ccc(F)cc1)Nc1cnc2ccccc2c1 | 1.88%
CCCC[C@H](NC(=O)OCc1ccccc1)C(=O)NCC#N | -11%
N#CC1=C(N)Oc2[nH]nc(-c3ccccc3)c2C1c1ccc2c(c1)OCO2 (stereo not drawn) | 0.751%
CCOc1ccc(OCc2ccc(C(=O)N3CCCCC3)o2)cc1 | -2.97%
COCCO/C(O)=C1/C(C)=NC(=S)NC1c1ccc(C)cc1 (stereo not drawn) | -5.63%
COc1cc(/C=C2\C(=N)N3N=C(S(C)(=O)=O)SC3=NC2=O)ccc1O | 13.6%
CCC1CCc2c(sc(NC(=O)c3cccnc3)c2C(N)=O)C1 (stereo not drawn) | 2.54%
CO/C(O)=C1\C(C)=NC2=C(C(=O)CC(c3ccccc3)C2)C1c1cccc([N+](=O)[O-])c1 (stereo not drawn) | 3.18%
O=C(Nc1cccc2n[se]nc12)c1ccc2c(c1)OCO2 | -2.5%
COc1ccc(CNc2nc3ccccc3c3nc(CCc4c(C)n[nH]c4C)nn23)cc1 | -2.42%
O=C(CCc1nnc2ccc(N3CCCC3)nn12)N1CCN(c2ccccn2)CC1 | 1.39%
CCCN(CCC)C(=O)CS(=O)Cc1nc(-c2ccc(OC)cc2)oc1C (stereo not drawn) | -2.85%
Cc1ccc(CN2N=NC3C(=O)NC(=O)C32)cc1 (stereo not drawn) | -0.411%
CO/C(O)=C1/C(C)=NC2=C(C(=O)CC(c3ccccc3)C2)C1c1ccc(OC)cc1 (stereo not drawn) | -2.87%
O=C(NCCc1ccccc1)c1cc([N+](=O)[O-])cc([N+](=O)[O-])c1 | -0.239%
CCOc1ccc(-c2[nH]nc3c2C(c2c[nH]nc2-c2ccc(F)cc2)C(C#N)=C(N)O3)cc1 (stereo not drawn) | 0.289%
Cc1oc(-c2ccc(Cl)cc2)nc1CN1CCCC(C(=O)N2CCN(C(=O)c3ccco3)CC2)C1 (stereo not drawn) | -4.71%
CC(C)CC(NC(=O)c1ccc(N)nc1)C(=O)NCC#N (stereo not drawn) | -3.97%
CC(C)(C)c1ccc(C(=O)Nc2ccccc2C(N)=O)cc1Br | 4.49%
Cc1ccc(Cn2nc(C)c(NC(=O)NC34CC5CC(CC(C5)C3)C4)c2C)cc1 | -5.29%

Source: article PMC6919601, “Identification of Plasmodium dipeptidyl aminopeptidase allosteric inhibitors by high throughput screening” (PLoS ONE, 2019)
